These are yes or no findings as the source states them, for the method shown. Binding seen in cells or lysates may run through a third protein. Some results given as binding are weak or reduced against the parent protein; the word gives no strength. Sequences can lack the tags named with a protein. Values belong to the molecule of their own block, whether it stands above or below them.
What was measured:
Assay in all cases: co-IP; HEK293A cells co-transfected with untagged necdin (FL or ΔH4/5) and Myc-tagged PIAS1 forms or p53; lysates precipitated and blotted with antibodies to Myc and necdin (Fig. 7B: IP anti-necdin, blot anti-Myc)
[1] = target: T1, necdin (full-length, untagged) (mouse) (UniProt P25233)
T1 sequence: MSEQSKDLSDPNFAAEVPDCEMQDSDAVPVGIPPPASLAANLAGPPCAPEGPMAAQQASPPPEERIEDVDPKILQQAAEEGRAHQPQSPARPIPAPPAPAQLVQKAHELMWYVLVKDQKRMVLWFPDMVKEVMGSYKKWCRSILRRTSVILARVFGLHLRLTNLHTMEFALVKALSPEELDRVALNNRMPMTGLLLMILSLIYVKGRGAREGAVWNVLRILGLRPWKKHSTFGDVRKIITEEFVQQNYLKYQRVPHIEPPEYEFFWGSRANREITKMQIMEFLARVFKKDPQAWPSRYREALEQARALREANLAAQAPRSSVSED

By UniProt entry, the sequences of proteins in these tests, tags left out.
UniProt P02340: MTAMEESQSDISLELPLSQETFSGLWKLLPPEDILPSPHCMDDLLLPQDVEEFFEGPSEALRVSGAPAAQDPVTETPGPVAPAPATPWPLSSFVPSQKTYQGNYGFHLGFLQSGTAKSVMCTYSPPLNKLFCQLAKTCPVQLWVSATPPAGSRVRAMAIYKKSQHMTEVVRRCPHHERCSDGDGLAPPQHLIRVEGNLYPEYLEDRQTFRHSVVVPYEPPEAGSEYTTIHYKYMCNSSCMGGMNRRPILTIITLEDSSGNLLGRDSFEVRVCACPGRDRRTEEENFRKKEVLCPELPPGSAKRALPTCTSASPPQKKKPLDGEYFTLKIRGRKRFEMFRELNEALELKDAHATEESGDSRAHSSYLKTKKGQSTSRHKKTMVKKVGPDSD

[2] = target: Myc-p53 (mouse) (UniProt P02340)
[3] = target: Myc-tagged PIAS1 (full-length) (mouse) (UniProt O88907)
[4] = target: T2, Myc-tagged PIAS1 aa 1-100 (NT) (mouse) (UniProt O88907)
T2 sequence: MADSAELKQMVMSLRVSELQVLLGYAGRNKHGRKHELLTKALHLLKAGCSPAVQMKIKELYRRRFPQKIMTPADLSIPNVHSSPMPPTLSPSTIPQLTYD

[5] = target: T3, Myc-tagged PIAS1 aa 101-300 (PD) (mouse) (UniProt O88907)
T3 sequence: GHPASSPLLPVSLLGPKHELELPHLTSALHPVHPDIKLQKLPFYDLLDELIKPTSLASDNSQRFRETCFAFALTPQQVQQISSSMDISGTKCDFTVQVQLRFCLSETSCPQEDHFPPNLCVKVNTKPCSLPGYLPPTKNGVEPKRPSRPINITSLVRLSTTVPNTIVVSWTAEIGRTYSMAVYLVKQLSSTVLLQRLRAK

[6] = target: Myc-tagged PIAS1 aa 301-400 (SR) (mouse) (UniProt O88907)
[7] = target: T4, Myc-tagged PIAS1 aa 401-651 (CT) (mouse) (UniProt O88907)
T4 sequence: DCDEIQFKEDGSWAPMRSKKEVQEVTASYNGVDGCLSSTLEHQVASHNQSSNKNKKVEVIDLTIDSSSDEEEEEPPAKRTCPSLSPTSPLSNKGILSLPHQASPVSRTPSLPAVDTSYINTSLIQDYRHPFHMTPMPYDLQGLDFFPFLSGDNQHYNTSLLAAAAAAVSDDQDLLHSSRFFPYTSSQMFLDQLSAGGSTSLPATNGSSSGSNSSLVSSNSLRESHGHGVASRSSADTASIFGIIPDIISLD

Molecule: Myc-tagged PIAS1 aa 301-400 (SR) (from UniProt O88907 301-400) (domain or fragment)
binding [1]: binds

B1: necdin (full-length, untagged) (protein, UniProt P25233 1-325)
chain: T1 sequence
binding [2]: binds | binding [3]: binds | binding [4]: no binding | binding [5]: binds | binding [6]: binds | binding [7]: no binding

B2: Myc-tagged PIAS1 aa 101-300 (PD) (domain or fragment, UniProt O88907 101-300)
chain: T3 sequence
binding [1]: binds

Results, then the molecule that gave them:

binding [1]: binds
Molecule: Myc-tagged PIAS1 ΔCT (aa 1-400) (from UniProt O88907 1-400) (domain or fragment)

binding [1]: binds
Molecule: Myc-tagged PIAS1 ΔNT (aa 101-652) (from UniProt O88907 101-651) (domain or fragment)

From PMC4049815
